Reference: PubChem BioAssay AID1476 (National Center for Advancing Translational Sciences (NCATS), 2009)
In all, about 200,000 compounds went through this assay and about 4,500 (2.2%) were called active. Inconclusive means that the source gave no clear call. Such entries were picked first, then a sample of the others. Calls follow the shape of the dose curve; as a rule, active = well fitted inhibition curve with a large enough effect; inconclusive = small, poorly fitted or top-dose-only effect, or effect the other way; inactive = flat fitted curve, though single readings scatter. Potencies of inconclusive entries are doubtful fits and often do not repeat.

The compounds below were run against Cruzipain (Trypanosoma cruzi) (UniProt P25779) (assay: qHTS Assay for Promiscuous and Specific Inhibitors of Cruzain (without detergent)). Conditions: purified cruzain, Z-FR-AMC fluorescence, no detergent.
Procedure, shortened: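 Purified cruzain at 1.5 nM, pre-incubated 15 min with compound at room temperature in 100 mM sodium acetate pH 5.5, 5 mM DTT, 0.00005% Triton X-100. Reaction started with 2 uM Z-FR-AMC; AMC fluorescence increase over 60 s gives rate.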
Also: nearly all actives have a fitted effect of over 40% in size.
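For max response, negative = inhibition in this document: plate controls were enzyme without inhibitor for no effect and buffer without enzyme for full effect.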
Potency is read from the fitted curve at half-maximal effect; tags tell the direction and shape of the fitted curve.

Sequence of UniProt P25779 (P25779 whole entry, looked up): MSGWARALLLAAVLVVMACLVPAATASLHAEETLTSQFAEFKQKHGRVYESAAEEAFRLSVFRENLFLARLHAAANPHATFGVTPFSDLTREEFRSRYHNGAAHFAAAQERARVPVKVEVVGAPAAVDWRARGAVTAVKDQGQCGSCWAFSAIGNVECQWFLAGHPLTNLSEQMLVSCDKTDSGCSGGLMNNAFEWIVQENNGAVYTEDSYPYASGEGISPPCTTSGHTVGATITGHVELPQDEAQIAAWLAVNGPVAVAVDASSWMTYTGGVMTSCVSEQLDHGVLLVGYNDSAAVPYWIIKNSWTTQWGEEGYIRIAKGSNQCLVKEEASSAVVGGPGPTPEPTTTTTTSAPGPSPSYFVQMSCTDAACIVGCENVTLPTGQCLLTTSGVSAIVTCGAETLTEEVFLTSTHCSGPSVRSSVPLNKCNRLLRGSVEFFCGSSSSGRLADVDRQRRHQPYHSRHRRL

Compound	Potency	max response, negative = inhibition
CCN1CCN(c2oc(/C=C/c3ccccc3OC)nc2C#N)CC1	active: 31.6 µM	–
CC(=O)N(C)c1ccc(OCC(O)Cn2c3ccc(Cl)cc3c3cc(Cl)ccc32)cc1 (configuration not stated)	inconclusive: 7.94 µM [activator, full curve]	–
Cc1cc(NC(=O)/C=C/c2cccc(F)c2)n(-c2nc3ccccc3[nH]2)n1	–	inactive: -4.76%
Cc1ccc(NC(=O)c2cc(S(=O)(=O)N3CCCC(C)C3)cn2C)c(Br)c1 (configuration not stated)	inconclusive: 39.8 µM [activator, single point]	–
Cc1nc(C)c(-c2ccc(SCC(=O)Nc3ccc(F)c(F)c3)nn2)s1	inconclusive: 39.8 µM [activator, single point]	–
CCCn1c(SC(C(=O)Nc2cccc(OC)c2)c2ccccc2)nc2ccccc2c1=O (configuration not stated)	active: 10 µM	–
Cc1ccc(C(c2sc3nc(C)nn3c2O)N2CCN(c3ccc(F)cc3)CC2)cc1 (configuration not stated)	inconclusive: 31.6 µM [activator, partial curve]	–
Cc1ccc(O)c(C(=O)c2cnc3onc(-c4ccc(F)cc4)c3c2)c1	active: 12.6 µM	–
O=C(Nc1ccccc1NC(=O)c1ccco1)c1ccco1	–	inactive: 5.79%
Cc1ccc(CNC(=O)CCc2c(C)nn(-c3ccc(N4CCCCC4)nn3)c2C)cc1	–	inactive: 3.32%
CCC(=O)N1CCN(c2nc(-c3ccc(Cl)cc3)cs2)CC1	inconclusive: 39.8 µM [activator, single point]	–
Cc1csc2nc(-c3cccc(NC(=O)c4ccccc4Cl)c3)cn12	inconclusive: 39.8 µM [inhibitor, single point]	–
C#CCO	–	inactive: 5.61%
COc1ccc(C(=O)COC(=O)c2cccc(NC(=O)c3ccc(OC)c(OC)c3)c2)cc1	inconclusive: 12.6 µM [activator, partial curve]	–
Cc1cc2ccccc2n2c(SCC(=O)Nc3ccc(S(=O)(=O)N4CCC(C)CC4)cc3)nnc12	inconclusive: 5.01 µM [activator, full curve, poor fit]	–
CSCCC(NC(=O)C12CC3CC(CC(C3)C1)C2)C(=O)OCC(=O)c1ccccc1 (configuration not stated)	–	inactive: -5.49%
C=CCn1c(=N)c(C(=O)NCCCOC)cc2c(=O)n3cccc(C)c3nc21	inconclusive: 39.8 µM [inhibitor, single point]	–
N#Cc1cccc(NC(=O)CSc2ccc3c4c(cccc24)C(=O)c2ccccc2-3)c1	active: 10 µM	–
Cc1ccc2c(c1)NC(c1cccnc1)=NC(c1ccc(F)cc1)=N2	–	inactive: 4.62%
COc1ccc(C)cc1N(C(=O)c1ccccc1F)c1nc2ccccc2s1	active: 1.58 µM	–
Cc1n[nH]c(C)c1C(=O)CC1(O)C(=O)N(Cc2ccccc2)c2ccc(Br)cc21 (configuration not stated)	inconclusive: 39.8 µM [activator, single point]	–
CCOC(=O)C(CC)Sc1nnc2c3cc(C)ccc3n(C)c2n1 (configuration not stated)	inconclusive: 31.6 µM [activator, single point]	–
COc1cccc(-c2nc(CS(=O)(=O)CC(=O)NCc3ccc(C)cc3)c(C)o2)c1	inconclusive: 39.8 µM [activator, single point]	–
COc1ccc2c(c1)c(CC(=O)O)c(C)n2C(=O)c1ccc(Cl)cc1	inconclusive: 39.8 µM [activator, single point]	–
CCOc1cc(-c2nc3c(c(CC)nn3-c3ccccc3)c3cc(OC)c(OC)cc23)ccc1O	–	inactive: 1.79%
COc1ccc(-c2csc(N3C(=O)C4C5c6ccccc6C(c6ccccc65)[C@@H]4C3=O)n2)cc1 (some centres not stated)	active: 10 µM	–

Compound	Potency	max response, negative = inhibition
Cc1ccc(-c2nnc(SCc3ccccc3C#N)o2)cc1	–	inactive: -13.7%
CCOC(=O)c1cccc(NC(=O)c2ccc3c(Cl)c4c(nc3c2)CCC4)c1	–	inactive: -3.78%
CCn1c(SCC(=O)Nc2nc3ccc(C)cc3s2)nc2c(c1=O)SC(C)C2 (configuration not stated)	inconclusive: 31.6 µM [inhibitor, single point]	–
COc1ccc(C2c3c(-c4c(C)cc(C)cc4O)n[nH]c3C(=O)N2Cc2ccco2)cc1 (configuration not stated)	inconclusive: 39.8 µM [inhibitor, single point]	–
CCc1nnc(NC(=O)c2cc(S(=O)(=O)N3CCN(c4ccccc4)CC3)ccc2Cl)s1	inconclusive: 31.6 µM [inhibitor, single point]	–
Cc1ccccc1Nc1nc(N)nc(CSCC(=O)Nc2cccc(Br)c2)n1	–	inactive: -8.51%
CC(C)(C)c1ccc(-c2nc(C#N)c(NCc3cccnc3)o2)cc1	inconclusive: 39.8 µM [activator, single point]	–
CC(=O)OC1C[C@@]2(C)C(c3ccoc3)OC(=O)C3O[C@@]32[C@]2(C)C(OC(C)=O)CC3C(C)(C)C(OC(C)=O)CC(OC(C)=O)[C@@]3(C)C12 (some centres not stated)	inconclusive: 25.1 µM [activator, partial curve]	–
COc1ccc(-c2cc3nc4n(c(=O)c3s2)CCC4)cc1	inconclusive: 15.8 µM [activator, single point]	–
COc1ccccc1NC(=O)c1ccc(SCC(=O)NCc2ccccc2Cl)c([N+](=O)[O-])c1	inconclusive: 20 µM [inhibitor, single point]	–
Cc1cc(N2CCN(C(c3ccccc3)c3ccccc3)CC2)n2ncnc2n1	inconclusive: 31.6 µM [activator, single point]	–
Cn1cc(S(=O)(=O)N2CCCCCC2)cc1C(=O)N1CCN(c2cccc(Cl)c2)CC1	inconclusive: 39.8 µM [activator, single point]	–
CCOc1ccc(/C=N/NC(=O)c2ccc(CSc3nc4ccccc4[nH]3)cc2)cc1	inconclusive: 39.8 µM [inhibitor, single point]	–
CCNC(=S)N1CCNC(=O)C1CC(=O)OC (configuration not stated)	–	inactive: -4.65%
CCOC(=O)C1CCN(C(=O)C2CCN(C3=NS(=O)(=O)C(c4ccc(C)cc4)=C3CC)CC2)CC1	–	inconclusive: 43% [activator]
CCc1ccc(NC(=O)C2CCN(S(=O)(=O)c3ccc4[nH]c5c(c4c3)CCCCC5)CC2)cc1	active: 10 µM	–
COc1ccc(-c2ccc3c(N)c(C(=O)NCc4ccc(Cl)cc4)sc3n2)cc1	inconclusive: 10 µM [inhibitor, partial curve]	–
O=C(N/N=C/c1ccc(F)c(F)c1)c1cc2c(s1)-c1ccccc1CC2	inconclusive: 39.8 µM [inhibitor, partial curve, poor fit]	–
Cc1ccc(-n2c(C)cc(/C=N/Nc3ccc([N+](=O)[O-])cn3)c2C)c(C)c1	active: 3.98 µM	–
COc1ccc(CCNC(=O)COc2ccc(-c3ccc(C)cc3)cc2)cc1OC	inconclusive: 25.1 µM [activator, single point]	–
O=C(Nc1nc2ccccc2n1CCN1CCCC1)c1ccc(Cl)cc1	inconclusive: 39.8 µM [inhibitor, single point]	–
COc1ccc(-c2cc3ccc(O)c(CN4CCOCC4)c3oc2=O)cc1	inconclusive: 5.01 µM [activator, single point]	–
CC1c2nc3ccccc3n2C(CC(=O)NCc2ccccn2)C(=O)N1Cc1ccccc1 (configuration not stated)	active: 12.6 µM	–
O=[N+]([O-])c1cc(C(F)(F)F)cc([N+](=O)[O-])c1N1CCN(S(=O)(=O)c2ccccc2)CC1	–	inactive: -3.53%
CCCCC(=O)Nc1ccc(C(=O)NNC(=O)CCc2ccccc2)cc1	inconclusive: 31.6 µM [inhibitor, single point]	–
O=C(CN1C(=O)COc2ccc(S(=O)(=O)N3CCOCC3)cc21)NCc1ccc(F)cc1	–	inactive: -6.41%

Compound	Potency	max response, negative = inhibition
COc1cc(C2CC(=O)c3c([nH]c(C(=O)OCCOC(C)C)c3C)C2)cc(OC)c1OC (configuration not stated)	inconclusive: 39.8 µM [activator, single point]	–
COc1ccc(C(C(=O)NC2CCCCC2)N(C(=O)CCl)c2cccc(Cl)c2)cc1 (configuration not stated)	inconclusive: 39.8 µM [inhibitor, single point]	–
COc1cccc(NC(=O)CSc2nc3ccccc3c(=O)n2CCCC(=O)N2CCCC2)c1	inconclusive: 31.6 µM [activator, single point]	–
O=C(CSc1nc2c(oc3ccccc32)c(=O)n1-c1ccccc1F)Nc1ccccc1	–	inactive: -25.2%
COc1cc(OC)cc(C(=O)NC(=S)Nc2ccc(N3CCCC3)cc2)c1	inconclusive: 31.6 µM [inhibitor, single point]	–
Cc1ccc(NS(=O)(=O)c2c(C(=O)N3CCC(C)CC3)c(C)n(C)c2C)cc1Cl	inconclusive: 39.8 µM [activator, single point]	–
COc1ccccc1N1CCN(C(=O)c2cc3c(=O)n(Cc4ccco4)ccc3nc2C)CC1	inconclusive: 39.8 µM [activator, single point]	–
FC(F)(F)c1cc(NC(=S)N2c3ccccc3-n3cccc3[C@H]2c2cccnc2)cc(C(F)(F)F)c1	–	inactive: -10.8%
O=[N+]([O-])c1cc(C(F)(F)F)cc([N+](=O)[O-])c1Cl	inconclusive: 3.98 µM [activator, partial curve, poor fit]	–
Cc1ccccc1N(C(=O)Cc1cccs1)C(C(=O)NCC1CCCO1)c1cccnc1 (configuration not stated)	inconclusive: 39.8 µM [activator, single point]	–
CN1CCc2c(cc(O)c(O)c2Cl)C(c2cccc(Cl)c2)C1 (configuration not stated)	inconclusive: 6.31 µM [inhibitor, single point]	–
Cc1ccccc1NC(=O)CCn1cnc2onc(-c3ccc(F)cc3)c2c1=O	inconclusive: 1.26 µM [inhibitor, single point]	–
COc1cc2c(cc1OC)CN(Cc1cc(=O)oc3cc(C)c(Cl)cc13)CC2	inconclusive: 20 µM [inhibitor, partial curve, poor fit]	–
COc1ccc(N2CCN(Cc3nc4c(c(=O)n(C)c(=O)n4C)n3CCc3ccccc3)CC2)cc1	inconclusive: 15.8 µM [activator, partial curve]	–
CCn1cc2nc(SCC(=O)Nc3ccc(C)cc3C)n(Cc3ccc(C)cc3)c(=O)c2n1	inconclusive: 3.16 µM [activator, single point]	–
Clc1ccccc1Cn1nnc2c(N3CCCC3)ncnc21	–	inactive: -15.2%
CC(N)[C@H](O)c1ccccc1 (some centres not stated)	inconclusive: 5.01 µM [inhibitor, partial curve]	–
Cc1ccc(OCc2nnc(SCC(=O)c3ccccc3)n2-c2ccccc2)cc1	inconclusive: 1 µM [inhibitor, single point]	–
CCOc1ccc(C(Nc2ccc(C)cc2)P2(=O)OCCCO2)cc1 (configuration not stated)	inconclusive: 39.8 µM [activator, single point]	–
CCN(CC)S(=O)(=O)c1ccc(N2CCOCC2)c(NC(=O)CC23CC4CC(CC(Br)(C4)C2)C3)c1	inconclusive: 25.1 µM [activator, single point]	–
COC(=O)c1ccc(C(NC(=O)OCc2ccccc2)/C(C)=C/[C@@H](C)C(=O)NCc2cc(C)on2)cc1 (some centres not stated)	inconclusive: 39.8 µM [activator, single point]	–
CCCc1ccc(C2Sc3ccccc3NC3=C2C(=O)c2ccccc23)cc1 (configuration not stated)	active: 7.94 µM	–
O=c1sc(/C=N/Nc2ccccc2)c(Cl)n1Cc1ccccc1	inconclusive: 39.8 µM [inhibitor, single point]	–
COc1ccc(-c2cc(C(=O)Nc3ccc(Cl)cc3Cl)c3ccccc3n2)cc1OC	inconclusive: 25.1 µM [activator, partial curve]	–
Cc1ccc(-c2noc(CCC(=O)N3CCN(c4cccc(C(F)(F)F)c4)CC3)n2)cc1	inconclusive: 20 µM [activator, partial curve]	–
